This is one part of the list.
Experiments:
[1] = system: HSkMC (human skeletal muscle cells); experiment: cytotoxicity call (relative viability < 0.9); details: 10 µM
[2] = system: HepG2; experiment: cytotoxicity call (relative viability < 0.9); details: 10 µM
[3] = system: S. aureus RN4220; experiment: growth inhibition call (relative growth <= 0.2); details: 50 µM

| SMILES | cytotoxicity call [1] | cytotoxicity call [2] | growth inhibition call [3] |
| --- | --- | --- | --- |
| C[C@H]1CC/C=C\[C@H]2O[C@@]34C=CCN(CCN5CCOCC5)C(=O)[C@H]3N(CCCO)C(=O)[C@@H]4[C@@H]2C(=O)O1 | inactive | inactive | inactive |
| CC1Cc2ccccc2N1NC(=O)c1ccc(Cl)c(S(N)(=O)=O)c1 (stereo not given) | inactive | inactive | inactive |
| CS(=O)(=O)N1C[C@H](O)COC[C@H]2O[C@@H](CC(=O)NCc3ccccc3)CC[C@@H]21 | inactive | inactive | inactive |
| C[C@H]1CN([C@@H](C)CO)C(=O)c2cc(NC(=O)Cc3cn(C)c4ccccc34)ccc2O[C@@H]1CN(C)C(=O)Nc1cccc2ccccc12 | inactive | inactive | inactive |
| COc1ccc(S(=O)(=O)N(C)C[C@H]2Oc3ncc(C#CC4(O)CCCC4)cc3C(=O)N([C@H](C)CO)C[C@@H]2C)cc1 | inactive | inactive | inactive |
| OCc1ncc[nH]1 | inactive | inactive | inactive |
| Cc1noc(C)c1NC(=O)N(C)C[C@H]1Oc2c(NS(=O)(=O)c3cn(C)cn3)cccc2C(=O)N([C@H](C)CO)C[C@@H]1C | inactive | inactive | inactive |
| C[N+](C)(CCOc1ccccc1)Cc1ccccc1.O=C(O)c1cc2ccccc2c(Br)c1O | inactive | inactive | inactive |
| C[C@@H]1CN([C@H](C)CO)C(=O)c2cc(NS(=O)(=O)c3ccc(F)cc3)ccc2O[C@@H](C)CCCCO[C@H]1CN(C)Cc1ccc(C(F)(F)F)cc1 | inactive | inactive | inactive |
| C[C@@H]1CN([C@H](C)CO)C(=O)Cc2cc(NC(=O)C3CCCCC3)ccc2O[C@H]1CN(C)C(=O)Nc1cccc2ccccc12 | inactive | inactive | inactive |
| Cc1noc(C)c1NC(=O)N(C)C[C@H]1OCCCC[C@@H](C)Oc2ccc(NC(=O)Cc3ccccc3)cc2C(=O)N([C@@H](C)CO)C[C@@H]1C | inactive | inactive | inactive |
| CCS(=O)(=O)N1CC[C@H]2[C@H](CC1)S(=O)(=O)CCN2C(=O)c1ccccc1 | inactive | inactive | inactive |
| Cc1noc(C)c1S(=O)(=O)Nc1ccc2c(c1)CC(=O)N([C@@H](C)CO)C[C@@H](C)[C@@H](CN(C)C(=O)NC(C)C)O2 | inactive | inactive | inactive |
| Cc1ccc(C=Nn2nnnc2N)s1 | inactive | inactive | inactive |
| CC(C(=O)O)c1cccc(Oc2ccccc2)c1 (stereo not given) | inactive | inactive | inactive |
| CC(C)NC(=O)Nc1ccc2c(c1)CC(=O)N([C@@H](C)CO)C[C@@H](C)[C@H](CN(C)Cc1ccc3c(c1)OCO3)O2 | inactive | inactive | inactive |
| O=C(NC1CCCCC1)NC1CCCCC1 | inactive | inactive | inactive |
| Cc1noc(C)c1S(=O)(=O)Nc1ccc2c(c1)CC(=O)N([C@H](C)CO)C[C@H](C)[C@H](CN(C)C(=O)NC(C)C)O2 | inactive | inactive | inactive |
| C[C@@H]1CN([C@@H](C)CO)C(=O)c2cccc(NC(=O)C3CCCCC3)c2O[C@@H]1CN(C)Cc1ccc(Cl)c(Cl)c1 | inactive | inactive | inactive |
| COc1ccc(C#Cc2ccc3c(c2)O[C@H](CN(C)C(=O)c2ccccn2)[C@H](C)CN([C@@H](C)CO)S3(=O)=O)cc1 | inactive | active | inactive |
| Nc1ccc(C(=O)Oc2ccccc2)c(O)c1 | inactive | inactive | inactive |
| N=c1c(C(N)=S)cnc2ccccn12 | inactive | inactive | inactive |
| Cc1noc(C)c1S(=O)(=O)Nc1cccc2c1O[C@@H](CN(C)S(C)(=O)=O)[C@@H](C)CN([C@H](C)CO)C2=O | inactive | inactive | inactive |
| O=C1[O][Bi]([OH])[O]c2ccccc21 | inactive | inactive | inactive |
| O=C(C[C@@H]1C=C[C@H](NC(=O)Cc2ccccn2)[C@H](CO)O1)NCCc1ccncc1 | inactive | inactive | inactive |
| C[C@H](CO)N1C[C@H](C)[C@@H](CN(C)C(=O)CN(C)C)Oc2cc(C#CCN(C)C)ccc2S1(=O)=O | inactive | inactive | inactive |
| CC(C)NC(=O)N[C@@H]1CC[C@H](CCN)O[C@@H]1CO | inactive | inactive | inactive |
| C[C@@H]1CN([C@@H](C)CO)C(=O)c2cc(NC(=O)Nc3ccc4c(c3)OCO4)ccc2O[C@@H](C)CCCCO[C@@H]1CN(C)Cc1ccc2c(c1)OCO2 | inactive | inactive | inactive |
| C[C@H](CO)N1C[C@H](C)[C@H](CN(C)C(=O)NC2CCCCC2)OCCCC[C@H](C)Oc2ccc(NS(=O)(=O)c3ccc(Cl)cc3)cc2C1=O | inactive | inactive | inactive |
| COc1ccccc1CNC(=O)C[C@@H]1C[C@H]2c3cc(NC(=O)c4ccc5c(c4)OCO5)ccc3O[C@H]2[C@H](CO)O1 | active | inactive | inactive |
